From PubChem BioAssay AID504333 (National Center for Advancing Translational Sciences (NCATS), 2011)
Out of some 360,000 compounds screened, about 16,000 (4.4%) were called active. Inconclusive means that the source gave no clear call. Such entries were picked first, then a sample of the others. The call rests on the fitted dose curve; in most records, active means well fitted inhibition curve with a large enough effect; inconclusive means small, poorly fitted or top-dose-only effect; inactive means no such curve, though single readings can be large or run the other way. A potency beside an inconclusive call is a rough fit, not a confirmed value.

Biological target: Bromodomain adjacent to zinc finger domain protein 2B (Homo sapiens) (UniProt Q9UIF8)
Experiment: qHTS Assay for Inhibitors of BAZ2B; further: nearly all actives have a fitted effect of over 60% in size
Settings: AlphaScreen BAZ2B-H3K14Ac peptide displacement; activity change, negative = inhibition: at 114 µM (top of the series)
How it was run: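 BAZ2B (50 nM) with biotin-H3(5-23)K14Ac peptide (50 nM) in PBS pH 7.4, 0.01% Tween-20, preformed 30 min, then compound 30 min at room temperature; top concentration 110uM. AlphaScreen streptavidin donor/nickel chelate acceptor beads (10 ug/mL final), 20 min dark, signal read.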
On the % scale 0 is the no-effect control and ±100 the full control effect; potency means the concentration at half of the fitted maximal effect; tags describe the fitted curve by direction and shape.

Sequence of UniProt Q9UIF8 (Q9UIF8 whole entry, looked up, the tested form may be a part): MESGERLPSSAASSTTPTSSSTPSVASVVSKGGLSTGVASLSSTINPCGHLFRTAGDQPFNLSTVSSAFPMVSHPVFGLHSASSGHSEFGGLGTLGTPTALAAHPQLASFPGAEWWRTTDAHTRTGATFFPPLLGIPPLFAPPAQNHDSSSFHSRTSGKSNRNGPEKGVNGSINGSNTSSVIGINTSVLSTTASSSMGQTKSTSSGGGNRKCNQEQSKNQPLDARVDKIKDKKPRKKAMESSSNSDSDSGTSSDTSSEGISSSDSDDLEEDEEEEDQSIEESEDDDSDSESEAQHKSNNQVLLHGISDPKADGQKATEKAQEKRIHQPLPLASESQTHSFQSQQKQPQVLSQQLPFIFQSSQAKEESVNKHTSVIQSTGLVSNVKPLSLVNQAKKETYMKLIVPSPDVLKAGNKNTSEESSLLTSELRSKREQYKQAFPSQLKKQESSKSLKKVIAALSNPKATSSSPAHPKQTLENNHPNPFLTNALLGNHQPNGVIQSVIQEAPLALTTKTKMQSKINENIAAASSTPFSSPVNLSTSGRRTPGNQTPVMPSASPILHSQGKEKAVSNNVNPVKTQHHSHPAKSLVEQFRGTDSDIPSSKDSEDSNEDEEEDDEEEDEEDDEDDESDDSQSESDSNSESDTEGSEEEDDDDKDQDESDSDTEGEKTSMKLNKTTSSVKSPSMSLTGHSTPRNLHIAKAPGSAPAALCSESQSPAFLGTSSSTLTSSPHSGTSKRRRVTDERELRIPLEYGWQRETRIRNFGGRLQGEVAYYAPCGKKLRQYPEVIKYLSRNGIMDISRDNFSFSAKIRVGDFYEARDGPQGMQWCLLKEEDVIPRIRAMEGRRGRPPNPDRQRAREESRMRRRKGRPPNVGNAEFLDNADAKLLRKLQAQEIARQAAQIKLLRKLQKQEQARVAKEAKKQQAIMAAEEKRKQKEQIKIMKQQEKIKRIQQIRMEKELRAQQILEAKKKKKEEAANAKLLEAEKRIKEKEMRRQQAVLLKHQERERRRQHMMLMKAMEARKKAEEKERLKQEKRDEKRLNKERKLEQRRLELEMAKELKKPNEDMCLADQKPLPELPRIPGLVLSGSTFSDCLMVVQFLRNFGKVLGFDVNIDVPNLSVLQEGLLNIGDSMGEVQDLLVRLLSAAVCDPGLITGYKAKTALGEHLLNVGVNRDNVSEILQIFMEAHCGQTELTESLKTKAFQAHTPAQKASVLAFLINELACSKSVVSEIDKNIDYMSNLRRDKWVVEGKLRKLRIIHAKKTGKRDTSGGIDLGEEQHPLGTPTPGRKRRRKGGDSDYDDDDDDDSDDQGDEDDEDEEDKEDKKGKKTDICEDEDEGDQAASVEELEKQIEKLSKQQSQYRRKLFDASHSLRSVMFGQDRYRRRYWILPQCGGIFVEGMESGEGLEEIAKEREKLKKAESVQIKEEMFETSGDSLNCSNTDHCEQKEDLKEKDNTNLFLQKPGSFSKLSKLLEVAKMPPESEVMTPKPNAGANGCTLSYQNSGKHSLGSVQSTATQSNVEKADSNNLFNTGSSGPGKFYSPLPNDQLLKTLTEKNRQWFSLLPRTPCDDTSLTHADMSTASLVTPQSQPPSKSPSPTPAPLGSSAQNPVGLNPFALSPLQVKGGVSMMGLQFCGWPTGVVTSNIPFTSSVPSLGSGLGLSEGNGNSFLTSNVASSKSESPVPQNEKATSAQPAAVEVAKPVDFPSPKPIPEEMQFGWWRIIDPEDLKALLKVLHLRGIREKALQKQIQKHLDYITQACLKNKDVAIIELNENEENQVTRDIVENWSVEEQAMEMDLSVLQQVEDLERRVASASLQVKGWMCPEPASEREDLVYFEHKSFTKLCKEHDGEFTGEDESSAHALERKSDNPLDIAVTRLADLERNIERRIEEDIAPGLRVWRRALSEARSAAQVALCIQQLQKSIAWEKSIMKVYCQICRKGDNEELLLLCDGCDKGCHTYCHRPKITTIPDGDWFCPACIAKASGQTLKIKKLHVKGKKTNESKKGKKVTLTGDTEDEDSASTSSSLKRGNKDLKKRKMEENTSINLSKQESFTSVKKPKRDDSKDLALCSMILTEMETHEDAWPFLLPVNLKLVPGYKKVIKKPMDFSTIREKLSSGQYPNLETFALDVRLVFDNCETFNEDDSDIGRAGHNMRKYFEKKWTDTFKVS

SMILES | Potency | activity change, negative = inhibition
Nc1cc2c(cc1C(=O)c1cccc(Br)c1)OCCO2 | active: 35.5 µM | –
CC1(C)CC(=O)C2=C(C1)OC(N)=C(C#N)C2c1ccc[nH]1 (configuration not stated) | inconclusive: 39.8 µM [inhibitor, partial curve] | –
COc1cccc(CNC(=O)CCCCCn2c(=O)[nH]c3cc(OC)c(OC)cc3c2=O)c1 | – | inactive: 3.92%
COc1ccc(C(=O)NC(=S)NCc2ccco2)cc1OC | inconclusive: 89.1 µM [inhibitor, single point] | –
Cc1ccc(C2CC(=O)Nc3cc4c(cc32)OCO4)o1 (configuration not stated) | inconclusive: 89.1 µM [inhibitor, single point] | –
O=C(NCCCO)c1cc2c(cn1)[nH]c1ccccc12 | inconclusive: 89.1 µM [inhibitor, single point] | –
COCCSc1ccccc1C(=O)N1CCN(c2ccccc2OC)CC1 | inconclusive: 89.1 µM [inhibitor, single point] | –
Cc1cc(=O)n(C)c(=O)n1CCCNc1ccccc1 | active: 50.1 µM | –
Cc1cccc2sc(NNC(=O)c3ccc(S(=O)(=O)N4CCc5ccccc5C4)cc3)nc12 | active: 3.98 µM | –
Cc1ccn2c(NCc3ccccc3)c(-c3cccs3)nc2c1 | inconclusive: 39.8 µM [inhibitor, partial curve] | –
CC(C)N1CCc2c(sc(NC(=O)c3cc4cc([N+](=O)[O-])ccc4s3)c2C(N)=O)C1 | active: 39.8 µM | –
COCCNC(=S)Nc1cc(OC)c(OC)cc1C#N | – | inactive: -17.9%
CC(C)c1cc(-c2nc(-c3ccc(Br)cc3)no2)n[nH]1 | – | inactive: -0.983%
Cc1ncc(CO)c(CNc2ccc(-c3nc4ccccc4[nH]3)cc2)c1O | inconclusive: 79.4 µM [inhibitor, single point] | –
CCCCn1c(N2CCC(Cc3ccccc3)CC2)nc2c1c(=O)[nH]c(=O)n2C | inconclusive: 44.7 µM [inhibitor, partial curve] | –
S=c1[nH]nc(-c2ccccc2)o1 | active: 79.4 µM | –
O=C(COc1ccc(Cl)cc1)N(Cc1ccc(F)cc1)C1CCS(=O)(=O)C1 (configuration not stated) | – | inactive: -9.65%
Cc1cc(N)n(-c2ccc(C)c(C)c2)n1 | – | inactive: -28.7%
CCOc1ccc(CNC(=O)c2cnc3sc(N(CC)CC)nn3c2=O)cc1 | – | inactive: -12.2%
COc1ccc(-n2c(N)c(C(=O)NCc3ccco3)c3nc4ccccc4nc32)cc1 | – | inactive: -0.997%
O=C(COc1ccc(Cl)cc1)NCc1nnc(SCC(=O)NC2CCCC2)o1 | inconclusive: 89.1 µM [inhibitor, single point] | –
CN(C)c1ccc(N=Cc2nc(-c3ccccc3)oc2O)cc1 | – | inactive: -10%
CCCCn1c(N)c(N(CC(C)C)C(=O)c2cccc(S(=O)(=O)N3CCCCCC3)c2)c(=O)[nH]c1=O | inconclusive: 1.26 µM [inhibitor, full curve, poor fit] | –
COc1cccc2c1-c1c(C(=O)O)cccc1C2=O | – | inactive: -28.8%

SMILES | Potency | activity change, negative = inhibition
Cc1ccc(C)c(N=Cc2ccc(-c3ccc([N+](=O)[O-])cc3)o2)c1 | inconclusive: 22.4 µM [inhibitor, full curve] | –
COc1ccc(-c2cc(OC)c3c(C)oc(C)c3c(=O)c2)cc1OC | inconclusive: 79.4 µM [inhibitor, single point] | –
Cc1ccc(NC(=O)C2CCCN2S(=O)(=O)c2ccc3c(c2)C(C)(C)C(=O)N3C)cc1 (configuration not stated) | inconclusive: 89.1 µM [inhibitor, single point] | –
O=C(Cc1ccc(-n2cccc2)cc1)N1CCN(c2ccccc2F)CC1 | active: 50.1 µM | –
Cc1cccc(N2CCN(C(=O)Cn3ncc4c([nH]c5ccccc54)c3=O)CC2C)c1 (configuration not stated) | – | inactive: -0.436%
COc1ccc(NC(=O)CSc2nccn2-c2ccccc2)c(OC)c1 | inconclusive: 50.1 µM [inhibitor, partial curve] | –
COc1ccc(N2CCN(C(=O)C(C)n3c(=O)cc(C(F)(F)F)c4c(C)nn(C)c43)CC2)cc1 (configuration not stated) | active: 35.5 µM | –
COc1cc(OC)c(OC)cc1CN1CCN(c2ccc(F)cc2)CC1 | active: 50.1 µM | –
O=C(CN1C(=O)c2ccccc2S1(=O)=O)Nc1ncc([N+](=O)[O-])s1 | inconclusive: 89.1 µM [inhibitor, single point] | –
Cn1cccc1/C=N\NC(=O)c1cncc(Br)c1 | inconclusive: 79.4 µM [inhibitor, single point] | –
COc1ccc(/C=N/NC(=O)CNc2n[nH]c(=O)[nH]c2=O)cc1OC | – | inactive: -2.45%
COCCOCC(O)CN1CCN(c2ccccc2)CC1 (configuration not stated) | active: 50.1 µM | –
Cn1c(SCC(=O)c2ccc(F)cc2)nnc1-c1ccccn1 | inconclusive: 79.4 µM [inhibitor, single point] | –
Cc1ccc(CN2C(=O)N/C(=C\c3ccc(-c4ccc(C(=O)O)cc4C)o3)C2=O)cc1 | active: 39.8 µM | –
O=C(O)/C(=C\c1cccc(F)c1)c1ccc(S(=O)(=O)N2CCCCC2)s1 | inconclusive: 50.1 µM [inhibitor, partial curve] | –
COc1ccc(Cl)cc1NC(=O)NCCc1c(C)nn(C)c1C | – | inactive: -1.79%
CCOC(=O)C1=C(C)N(c2ccccc2)C(=O)/C1=C\c1ccc(O)c(OC)c1 | inconclusive: 70.8 µM [inhibitor, partial curve, poor fit] | –
COc1cc2[nH]c(C(=O)N3CCC(Cc4ccccc4)CC3)cc2c(OC)c1OC | inconclusive: 50.1 µM [inhibitor, single point] | –
O=C(/C=C/c1ccco1)N1CCN(S(=O)(=O)c2cccs2)CC1 | inconclusive: 56.2 µM [inhibitor, partial curve] | –
CC(C)C(=O)NC(c1cccc([N+](=O)[O-])c1)c1ccc2cccnc2c1O (configuration not stated) | active: 25.1 µM | –
COc1ccc(N=c2cc(-c3ccc(OC)cc3)oc3ccccc23)cc1 | active: 28.2 µM | –
CN1CCN(c2ccccc2NC(=O)c2sc3ccccc3c2Cl)CC1 | inconclusive: 79.4 µM [inhibitor, single point] | –
S=C(Nc1cccc(Br)c1)c1ccccc1 | inconclusive: 56.2 µM [inhibitor, partial curve] | –
Cc1ccccc1NC(=O)CSC(N)=O | – | inactive: -16.3%

SMILES | Potency | activity change, negative = inhibition
CCC(=O)C1CCCN(C(=O)CCc2nnc(-c3ccc4c(c3)OCO4)o2)C1 (configuration not stated) | inconclusive: 79.4 µM [inhibitor, single point] | –
CCN(CC)C(=O)c1sc(N)c(C(=O)OC(C)C)c1C | – | inactive: 6.19%
COCCN(C(=O)COC(=O)c1cc(C)n(-c2ccccc2)c1C)c1c(N)n(Cc2ccccc2)c(=O)[nH]c1=O | inconclusive: 89.1 µM [inhibitor, single point] | –
COCCCN=C1NN=C(c2cc(C)n(-c3ccccc3)c2C)CS1 | inconclusive: 56.2 µM [inhibitor, partial curve, poor fit] | –
CCOc1ccc(CNC(=O)c2cccn2-c2nnc(N3CCCCC3)s2)cc1OC | inconclusive: 70.8 µM [inhibitor, single point] | –
CCOCCCNC(=O)c1cc(=O)[nH]c2ccc(S(=O)(=O)N3CCCC3)cc12 | – | inactive: 4.72%
Cc1cccc(Sc2ccc([N+](=O)[O-])cc2[N+](=O)[O-])n1 | inconclusive: 70.8 µM [inhibitor, partial curve] | –
O=C(COc1ccc2oc(-c3ccccc3)cc(=O)c2c1)NCc1ccco1 | inconclusive: 79.4 µM [inhibitor, single point] | –
N#Cc1nc(-c2ccc(OCc3ccccc3)cc2)oc1N1CCOCC1 | inconclusive: 6.31 µM [inhibitor, full curve] | –
CCCCN(Cc1ccccc1)S(=O)(=O)c1cc(Br)cc2c1N(C(C)=O)CC2 | – | inactive: 0.418%
COc1ccc(CN2C(=O)c3cccnc3C2=O)cc1S(=O)(=O)N1CCCCC1 | inconclusive: 79.4 µM [inhibitor, partial curve] | –
O=C(N/N=C/c1ccc(-c2ccc(Cl)c(C(=O)O)c2)o1)c1cc2c(ccc3ccccc32)o1 | active: 28.2 µM | –
O=C(OCC(=O)N1CCN(c2ccccc2)CC1)c1ccc[n+]([O-])c1 | – | inactive: -16.2%
O=C(Cc1ccccc1)Nc1nnc(-c2ccco2)s1 | inconclusive: 89.1 µM [inhibitor, single point] | –
CCOc1ccccc1NC(=O)Cn1nnc(C(=O)Nc2ccccc2Cl)c1N | inconclusive: 3.98 µM [inhibitor, single point] | –
CCS(=O)(=O)c1cc([N+](=O)[O-])c(Sc2ccccc2N)s1 | inconclusive: 79.4 µM [inhibitor, single point] | –
COc1ccc(/C=C2\SC(=S)N(CCC(=O)Nc3ccc(C(=O)O)cc3)C2=O)cc1 | active: 35.5 µM | –
Cc1ccc(OCC(=O)N/N=C\c2c(C)[nH]n(-c3ccccc3)c2=O)c([N+](=O)[O-])c1 | inconclusive: 89.1 µM [inhibitor, single point] | –
CCCOc1ccc(/C=N/Nc2cc(N3CCOCC3)ncn2)c(O)c1 | inconclusive: 89.1 µM [inhibitor, single point] | –
COc1ccc(NC(=S)N/N=C2/CCCc3c(C)cc(C)cc32)cc1 | – | inactive: -6.28%
Cc1nnc(NC(=O)Cc2cccs2)s1 | inconclusive: 79.4 µM [inhibitor, partial curve] | –
COc1cccc(N2CCN(C(=O)c3ccc(CS(=O)Cc4ccc(Cl)cc4)o3)CC2)c1 (configuration not stated) | inconclusive: 39.8 µM [inhibitor, full curve] | –
O=C(N/N=C/c1cccc([N+](=O)[O-])c1)c1ccccc1-n1cccc1 | inconclusive: 39.8 µM [inhibitor, full curve] | –
CCOC(=O)C1CCN(C(=O)c2ccc(N(C)S(C)(=O)=O)cc2)CC1 | inconclusive: 6.31 µM [inhibitor, single point] | –
